Laboratory results from the supplement of paper PMC3334620.
Over roughly 33,000 sequences, “E-score (-0.5 to 0.5)” has its median near -0.036; the highest 2% begin near 0.37. The list shows a part of the results.

Target: T1, Yer064c (UniProt P40041)
T1 sequence: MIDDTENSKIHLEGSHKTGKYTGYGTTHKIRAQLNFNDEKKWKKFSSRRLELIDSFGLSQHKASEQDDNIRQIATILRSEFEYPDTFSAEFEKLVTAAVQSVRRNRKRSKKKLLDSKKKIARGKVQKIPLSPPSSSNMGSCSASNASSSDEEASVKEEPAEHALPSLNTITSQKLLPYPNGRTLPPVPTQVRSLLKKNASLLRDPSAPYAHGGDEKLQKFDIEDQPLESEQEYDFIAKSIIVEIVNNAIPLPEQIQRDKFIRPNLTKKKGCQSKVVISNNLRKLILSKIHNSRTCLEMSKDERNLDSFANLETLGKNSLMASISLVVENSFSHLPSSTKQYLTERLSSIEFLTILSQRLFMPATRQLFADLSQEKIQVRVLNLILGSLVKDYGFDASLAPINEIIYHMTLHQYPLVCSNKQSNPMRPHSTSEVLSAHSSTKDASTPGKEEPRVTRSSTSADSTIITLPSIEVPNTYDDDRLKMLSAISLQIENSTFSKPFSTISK
Assay: PBM E-score (8-mer binding enrichment) (E-score (-0.5 to 0.5)); higher = stronger / more preferred TF binding; most listed sequences are background and not binding sites
Details: protein concentration: 200 nM; construct: GST-full length
Method in brief: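 Yeast transcription factors carrying a GST tag, as full-length proteins or DNA-binding domains, were produced by PURExpress in vitro transcription/translation. About 100-200 nM protein was applied to universal all-10-mer Agilent arrays, double-stranded by primer extension on fresh or once-stripped slides. Bound protein was detected with fluorescent anti-GST, and scans were normalised with masliner. The Universal PBM Analysis Suite gave each ungapped eight-base word, pooled with its reverse complement, an E-score, a modified Wilcoxon-Mann-Whitney statistic.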

Sequence	PBM E-score
CCTCTTCG	-0.0971
ATGCCCTA	-0.222
CCAAATAG	0.0808
CTGAAAAC	-0.16
CGGTGTAC	-0.152
CATAAATA	0.0498
GAGGTATC	-0.136
ATACTGAC	0.148
TCGAACGA	-0.0348
ACCCATCC	0.165
CATTAGTA	0.257
GAGCAATA	-0.131
AGCACTTC	-0.317
AAGTGGGG	-0.201
TCGATAGA	0.0137
TCATCAAA	0.248
TCGTTAAA	0.0153
CACATCTC	0.04
AATCGATA	0.114
AGGCACCA	-0.271
ACCGTTAT	0.0224
ACTCATCA	0.412
CCTCCAAG	-0.0691
ATTAACAA	0.202
GAACACCA	-0.0595

Sequence	PBM E-score
AGAGCCCG	0.0423
ACGCCTAC	-0.155
AATAGTTA	-0.0358
GAATGACC	-0.0646
CCTTCCGC	-0.177
GAGGATCC	-0.163
GTCTCGTA	0.0767
ACACATGC	0.105
CTCAAGCA	-0.0055
AATCATGC	0.432
TAAACAGA	0.134
ATCACCTA	0.127
CATTCTGC	0.0792
AAGTGGAG	0.0616
ATCCGTTC	-0.0715
AACGGTGA	0.123
AATACAAT	-0.0991
CACGACGA	0.044
CAAATTAA	0.154
ATGAGATC	0.0385
CAAAACGA	0.0931
AAGCCAAC	-0.149
AACCAATG	0.0133
AATTATAG	0.121
GCGTATGA	0.104

Sequence	PBM E-score
ATCAACAT	0.179
CTAGCGAG	-0.0018
AGGTAAGA	0.0735
ATTTTCAC	0.0527
TGCCTCCA	-0.185
CAGCGTGC	0.0625
CCAGTCCC	-0.167
TTCGTCAA	0.0943
CCCCATGC	-0.284
AAGAACGT	0.161
CTACTATC	0.113
ACGGGCAA	-0.166
CAGACCCG	0.0251
ATCAGTAC	0.116
CAATTCAG	-0.0647
GTCTAAAC	0.0866
CGATCGAC	-0.0565
ATTCAATA	0.149
TAGCATGA	0.2
TTCATCAA	0.15
TATTCTAA	0.0714
AGGATAAG	-0.204
CACCTGAG	0.00816
CGAATATC	-0.26
GCGGCTAA	0.0963

Sequence	PBM E-score
GACCAGGA	-0.146
TGGGTGAA	0.0876
ACAGGAAT	0.0679
TCCCAACA	-0.129
CGCTCAAG	-0.15
CCTCAACA	-0.0193
ACCCAGTC	0.124
CGAAGCAA	-0.0916
CAGTTCCA	-0.132
CACACTGC	0.0437
AGTCCTAT	0.306
GGACTTAA	0.188
CGAACCAA	-0.0799
AAAGTTCG	0.00349
CCCGCGAG	-0.14
AAAATCAC	0.25
AAGGTGAA	0.00928
AGTCAAGA	0.414
GTAGAAAC	-0.119
AACCGTAG	-0.205
ATTTGCTA	-0.0117
AAAATTTT	0.211
CGAAAAAA	0.0432
CTTACCTC	-0.0778
ACGCTGCG	-0.196

Sequence	PBM E-score
ATCCCAGC	-0.132
TCAGAGGA	-0.00214
CGCTGCAG	-0.194
CAAGGCCG	0.00573
AAGTAGTC	0.415
GATGTTAC	-0.118
AGCCACTC	0.0575
GGCATAGA	-0.128
CCGTTTCC	-0.336
CGTCCCTC	-0.196
AAGTGGCT	0.112
GCAGACTA	0.309
TAACGTGA	0.164
CCGAAAGC	-0.118
GGGATGGA	-0.24
CATGTTCG	-0.00751
GCATATCA	-0.133
GCCTTTCC	-0.225
GGAAACCC	-0.212
AAACCAAT	0.0147
GCGTTAAA	-0.0605
CAACATGA	0.265
CAGCTAAA	0.0583
AACGTATT	-0.12
GGGGAGAC	-0.0271

Sequence	PBM E-score
AGCAGTAT	-0.17
CTTCACGC	-0.0498
ATCCACTA	0.0542
CTCCCGAA	0.0249
CACAGTGC	-0.0934
AAAATGCA	-0.173
AACTCAGA	0.164
CCTTTCCG	-0.139
AACGTGAT	0.242
CCGATTGA	0.207
CCATGGCG	-0.0642
CCAAAATC	0.103
AGACGCCC	-0.154
AAATTTTA	0.0344
GCGCCACA	-0.278
ATGTGCCA	-0.0092
AATTACAG	0.145
CCTATCCC	-0.171
CTTAAAGC	-0.115
CCACTGGA	-0.0822
ATCCTGAG	0.122
TAAAGGGA	0.0752
AGATACGG	-0.0992
AAGTCCGA	0.0757
GATATAGC	-0.225

Sequence	PBM E-score
CAATCGAA	0.0349
CAAGCCCA	-0.154
TAGAGGCA	-0.273
GTTTCTCA	-0.00388
AACTGGTG	-0.138
AAGCTGGA	-0.0528
CACCATCA	-0.126
GGGATGTA	-0.252
AAGAGACC	-0.115
ATCCAATG	-0.0599
CTCATGGA	0.119
GGGGAAAC	-0.00029
ACGACCGA	0.0911
GTATTGAC	0.153
GACACTCC	0.0934
CCAGGAGC	-0.315
AAGAGCCA	0.0756
GACACATC	0.116
CCTTTTAA	0.0512
CTGCGATA	0.0199
GCTTTGTA	0.0612
ATTGCATG	0.137
